The record followed here is ChEMBL document CHEMBL1157539, “Thousands of chemical starting points for antimalarial lead identification” (Nature, 2010).

Structures are written as SMILES. Over roughly 13,000 compounds, “IFI” has its median near 4; the highest 2% begin near 17. This is one part of the list.

The test is described as follows: GSK_TCMDC: Inhibition Frequency Index (IFI). The number of non-kinase HTS assays where a compound showed > 50 % inhibition, expressed as a percentage of the number of such assays in which the compound was tested (-0 is zero). It is filed as functional.
`COc1ccc(Cl)cc1NC(=O)C(C)Nc1ccc(-c2ccccc2)cc1` (stereo unspecified): the IFI was found to be 0.76%.
The same measure for `Nc1[nH]c2ccccc2c(=O)c1-c1nc2ccccc2s1`: 1.8%; for `Cc1cc(OCCCN2CCC(NS(=O)(=O)c3ccc(Cl)c(Cl)c3)C2)c2ccccc2n1` (stereo unspecified): 3.39%.
Consider `CS(=O)(=O)Nc1cccc(-c2cnc3[nH]cc(-c4cc(N)cc(C(=O)O)c4)c3c2)c1`, for which the IFI came to 6.48%.
Next, `CCCCCCCn1c2c(c(=N)c3c1CCC3)CCCC2`: 14.8%; `c1ccc2[nH]c(-c3ccc(-c4ccc(CN5CCCCC5)cc4)cc3)nc2c1`: 5.63%.
The compound `CCCCc1ccc2[nH]c(NC(=O)OC)nc2c1` returned an IFI of 2.88%.
Next, `CCN(CC1CCN(CC2(O)CCOCC2)CC1)c1cc(C)nc(Nc2ccc(Cl)cc2)n1`: 10.3%; `CC(C)CN1CCC(COc2ccc3ncn(-c4cc(O[C@H](C)c5ccccc5C(F)(F)F)c(C(N)=O)s4)c3c2)CC1`: 11.1%.
Next, `Cc1ccc2nc(C)cc(N/N=C/c3ccc([N+](=O)[O-])cc3)c2c1`: 1.47%.
The same measure for `O=C(NC1CC1)c1ccc(Cn2c(SCc3cccc(Cl)c3)nc3ccccc3c2=O)cc1`: 0.71%; for `O=C(C1CC1)N1c2ccccc2CCc2ccccc21`: 3.06%.
In turn, `CC(=O)c1ccc(N2CCN(C(=O)Nc3ccc(Cl)cc3)CC2)cc1` returned an IFI of 0%.
The same measure for `COc1ccc2c(c1C1CCN(CCCCNC(=O)c3ccc(NC(=O)c4ccc(Cl)cc4)cc3)CC1)CCCC2`: 4.44%; for `Cc1cccc2nc(-c3ccc(-c4cccc(NC(=O)Nc5ccccc5)c4)cc3)[nH]c12`: 5%; for `Cc1ccc(CNC(=O)[C@H](Cc2ccccc2)Nc2cc(C)nc(Nc3ccccc3)n2)cc1`: 12.8%.
The same measure for `Cc1n[nH]c2ccc(-c3cc(OC[C@@H](N)Cc4ccccc4)cnc3-c3ccccc3OCc3cccc(F)c3)cc12`: 7.62%; for `O=S(=O)(c1cccc(F)c1)c1ccc(Nc2ncnc3cc(Br)sc23)cc1Cl`: 8.09%; for `COc1ccc(-c2ccccc2CNC2Cc3ccccc3C2)cc1S(=O)(=O)NCCN1CCCC1`: 2.8%.
Next, `Cc1cc(C(=O)NC2CCN(Cc3ccccc3)CC2)ccc1-c1nc2ccc(C(F)(F)F)cc2[nH]1`: 0.74%.
Regarding `COCCOc1ccc(C(F)(F)F)cc1NC(=O)Cc1c(F)cccc1Cl`, the IFI is -0%.
Next, `O=C(NC1CCC1)C1CCN(C(c2ccc(Cl)cc2)c2ccc(Cl)cc2)CC1`: 3.42%; `COc1cc(C(=O)N2CCOC(CCN3CCC(c4ccc(Cl)cc4)CC3)(c3ccc(Cl)c(Cl)c3)C2)cc(OC)c1OC` (stereo unspecified): 9.42%.
Next, `CCCCNC(=O)c1[nH]c2c(NC(=O)COc3ccccc3)cccc2c1-c1cccc(NC(=O)C(N)CO)c1` (stereo unspecified): 1.46%; `CCC(C)(C)c1ccc(N2C(N)=NC(N)=NC2(C)C)cc1`: 3.68%.
In turn, `NC1(C(=O)O)Cc2ccc(Cl)cc2C1` (stereo unspecified) yielded an IFI of 0%.
The same measure for `CCOC(=O)NCC(=O)Nc1cccc(-c2cccc(-c3nc4cc(C(F)(F)F)ccc4[nH]3)c2)c1`: 11.2%; for `Cc1cccc2nc(-c3cccc(-c4cccc(CNCc5ccc(S(C)(=O)=O)cc5)c4)c3)[nH]c12`: 8.65%; for `Cc1cccc2nc(-c3ccc(-c4ccc(CN5CCN(C6CCN(C)CC6)CC5)cc4)s3)[nH]c12`: 12.5%.
The same measure for `Cc1cc(N2CCCN(C)CC2)nc(Nc2ccc(Br)cc2)n1`: 1.19%; for `Oc1ccc2[nH]c(-c3cccs3)nc2c1CN1CCC(N2CCCC2)CC1`: 0.85%; for `COc1cc(Nc2nccc(-c3c(-c4cccc(NC(=O)c5c(F)cccc5F)c4)nn4ccccc34)n2)cc(OC)c1OC`: 10.6%.
The same measure for `COc1ccc(C(=O)C2CCN(CCCCNC(=O)c3ccc(NC(=O)c4ccc(Cl)cc4)cc3)CC2)c(OC)c1`: 8.33%.
`Cn1nccc1C(=O)NCCNCc1cccc(-c2ccc(-c3nc4ccccc4[nH]3)s2)c1`: the IFI turned out to be 5%.
Next, `COCCNCc1cccc(-c2ccc3c(Nc4cc(O)c(Cl)cc4F)ccnc3c2)c1`: 5.26%.
Take `S=C(NCCN1CCOCC1)Nc1ccccc1`: the IFI is -0%.
Next, `Cc1nc(Nc2cc(Cl)ccc2O)nc(Nc2cc(Cl)ccc2O)c1[N+](=O)[O-]`: 0.72%; `Cc1cccc2nc(-c3cccc(-c4ccc(NC(=O)Cc5ccc[n+]([O-])c5)cc4)c3)[nH]c12`: 1.77%; `CC(C)Oc1ccccc1-c1csc(C(=O)NCC2CCN(Cc3ccc(C(C)(C)C)cc3)C2)c1` (stereo unspecified): 16%.
`CN(C)S(=O)(=O)c1ccc(N2C(=O)C3C(C2=O)C2(c4ccccc4)C(=O)C3(c3ccccc3)C(c3ccccc3)=C2c2ccccc2)cc1` (stereo unspecified) yielded an IFI of 0.72%.
The same measure for `CCC(CC)(Cc1ccccc1)NC(=O)[C@H](CC(C)C)Nc1ccc(C#N)c2ccccc12`: 3.92%.
The same measure for `CCCC(C)N(Cc1ccc(C(C)(C)C)cc1)C(=O)c1cccc(OC)c1` (stereo unspecified): 3.68%; for `CCS(=O)(=O)c1ccc(-c2cnc3[nH]cc(-c4ccc(N)cc4)c3c2)cc1`: 7.69%.
The same measure for `COc1ccc(CNC(=O)Nc2cc3cc(-c4ccc(CN5CCCC5)cc4)ccc3n3c(C)nnc23)cc1`: 13.5%; for `COc1ccc(C2(CNCC(O)c3cccc([N+](=O)[O-])c3)CCCCC2)cc1OC` (stereo unspecified): 0.73%.
`COc1ccc2nccc([C@@H](O)CN3CCC(NC(=O)[C@@H]4Cc5ccccc5CN4C(=O)OC(C)(C)C)CC3)c2c1`: the IFI was -0%.
As for `CCOC(=O)c1ccc(-c2cnc(N)c(-c3nc4cccc(C)c4[nH]3)c2)cc1`, the IFI came out at 0.69%.
The same measure for `CCc1ccc(CN2CCC(NC(=O)c3ccc(-c4ccccc4F)s3)CC2)cc1`: 10.3%; for `O=C(NCCCN1CCOCC1)c1ccc(-c2cccc(NC(=O)c3ccc(Cl)c(Cl)c3)c2)cc1`: 11.6%.
Next, `COc1cc(NC(=O)N2CCc3cc(OC)c(OCCN4CCCCC4)cc32)cc(C(F)(F)F)c1`: 1.49%; `CCN(C1CCCCC1)S(=O)(=O)c1ccc(OC)c(N2CCN(C(=O)C(Cl)(Cl)Cl)CC2)c1`: 5.83%.
The same measure for `CCCCN(CCCC)CCCN(CCCN(CCCC)CCCC)c1cc(C)nc(Nc2ccc(Cl)cc2)n1`: 9.38%; for `Cc1cc2c(cc1C(F)(F)F)N(C(=O)Nc1ccc(C(=O)NCCN3CCCC3)cc1)CC2`: 2.9%; for `O=C(/C=C/c1ccc(Cl)c(Cl)c1)NCCCCCN1CCC(NS(=O)(=O)c2cc(Cl)cc(Cl)c2)CC1`: 7.94%.
For the compound `Cc1cc(N2CCN(CC3CCN(C)CC3)CC2)nc(Nc2ccc(Br)cc2)n1`, the IFI stood at 5.95%.
In the case of `O=S(=O)(NC1=NCCC1)c1cccc(Nc2nc(C(F)(F)F)nc3ccccc23)c1`, the IFI is -0%.
